In publication PMC12136788:
The list shows a part of the results.

T1: UNK ZnF1-3 (human, UniProt Q9C0B0 31-174)
T1 sequence: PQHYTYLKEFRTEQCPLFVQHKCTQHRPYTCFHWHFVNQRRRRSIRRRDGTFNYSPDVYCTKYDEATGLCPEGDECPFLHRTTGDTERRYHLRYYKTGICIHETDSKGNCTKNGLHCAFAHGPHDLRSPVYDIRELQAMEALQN

B1: chr10:60036935:60036936:+_ENSG00000122873_ENST00000333926|hu_hu|motif|central (ssRNA)
RNA: GGGAGUUCUACAGUCCGACGAUCGUGAAGGUUUAUCAUAGCUUUAUUUCGAUGAUCUUUAACAUAAAAUCUUUUGUAAGCGGGAUAACCAAUUGCAGCUGUCCCAGCAGCAAUGGUAACUGCUGCGAUCCAUUCAACUCGUACCAACAGAGGAUUGAGCAUCA
B2: chr1:109605286:109605287:-_ENSG00000197780_ENST00000461096|hu_mus|hu_hu_hu_mus_True|78_78 (ssRNA)
RNA: GGGAGUUCUACAGUCCGACGAUCAAGUUUCAGAGUAACAUUCAGUAACCUCUUUAACAAUUGUAAUCCUUAUUAUAAGCUAAGCAGAAUAAUAAUUUAAUACCGUAAGUGAACUACACACAAAGCCUGAACCGCGAAAAUGGUCAACAGAGGAUUGAGCAUCA
B3: chrX:101971874:101971875:+_ENSG00000158301_ENST00000332262|hu_mus|FALSE|FALSE (ssRNA)
RNA: GGGAGUUCUACAGUCCGACGAUCUAUAGUGAGAUGUCUAAGCAUCCUCAUUCCAGUUAGCUGUUCAGGGGAAUUCACGCUAUGUGAAAGUGUCUCCUCACACACUUGACAAAUAAAUGUCUCAAUCAUGUUUAGAUUUGGAUACAACAGAGGAUUGAGCAUCA
B4: 128108328_128108448_903_CDS_ENSMUSG00000049858_ENSMUST00000054764|mouse|control|control (ssRNA)
RNA: GGGAGUUCUACAGUCCGACGAUCAGCCCAGCGUGCUGUGCUGAUGGCCCCUGUUCUCCAUUCCAGACCUUUCACUUCCUUGACCUUACUCAUUUCGGAGCGCCGGUUACCAGCACACUGCAGAGUGACAGUGACCUCAUGUUUCAACAGAGGAUUGAGCAUCA
B5: chr12:3048583:3048584:+_ENSG00000078246_ENST00000448120|hu_hu|FALSE|FALSE (ssRNA)
RNA: GGGAGUUCUACAGUCCGACGAUCGGGAGAAGGGCUCCCUGCCUGACUGUUCUCUCAUUCACACGCCAGCUUACUGUCAAAGCUAGAAAGACCGAUGCCAAAGGCCUGUACUGCACAAAGUGGGUAGUUGUAAUCCAGUGUGAACAACAGAGGAUUGAGCAUCA
B6: chr1:192779330:192779331:+_ENSG00000116741_ENST00000235382|hu_mus|FALSE|FALSE (ssRNA)
RNA: GGGAGUUCUACAGUCCGACGAUCUUGCUGUUUGCUUUUCUUGCCAGUUUUGGGCUUCCCAGGAGCAGAGGAAUUCUGCAAGAAGUAGCUCAAACGGGUCUUCCAAUCCUUUAAGAGUGUCCGCUUCAUUUUCUCCCGCUUCUCCAACAGAGGAUUGAGCAUCA
B7: chr4:117881997:117881998:-_ENSMUSG00000033295_ENSMUST00000150096|mus_mus|FALSE|FALSE (ssRNA)
RNA: GGGAGUUCUACAGUCCGACGAUCUGUCCUUCCGCAGAAGUUGUACAAGAAAGGAUCCAACGUGAACUCAAAAAGGAAAACAAACAAGUCCCAACUCCCACAGCAGCCCCAUCUGCAGUGAAAGACCUGCAAAAGCAAAGUCGGCAACAGAGGAUUGAGCAUCA
B8: chr9:62645482:62645483:-_ENSMUSG00000032244_ENSMUST00000034775|mus_hu|FALSE|FALSE (ssRNA)
RNA: GGGAGUUCUACAGUCCGACGAUCUACUGUGGUAUGGUUCACGUUGGCUCCAUGGCUGACUAGAAGUUUAACAACUUCAAAAUGUCCUGCUCCAGCUGCACACCAAAGAGCAGUGGCACCAUCAAUGACAUACCCGUCGAAGCGCAACAGAGGAUUGAGCAUCA
B9: 77286315_77286435_1648_CDS_ENSMUSG00000036377_ENSMUST00000163347|mouse|control|control (ssRNA)
RNA: GGGAGUUCUACAGUCCGACGAUCAGGCUCCUCCGCGAUCUCUCUCUGCCCUGCGGAUUCCAGGUCUUCUCGUUCCCGUUCCCCUGGCUUCUCAAGGUCCCGCUGCAGUGGGCUUCGCUGGUCAGCAUCGUCCGUUAGCCAAGGCAACAGAGGAUUGAGCAUCA
B10: chr17:45747064:45747065:+_ENSG00000108424_ENST00000290158|hu_hu|hu_hu_hu_mus_True|98_108 (ssRNA)
RNA: GGGAGUUCUACAGUCCGACGAUCGCCUACAGUCCAUGCAGCUGUAUCUCGAACAACUACACUGGGGUCUUUCAUUAGUUCUAUUAGGGUGGGCAUAGCCUGUAUGACUAAUGGUUUCAGUUGAUUAGGCUCUGGUCCUUCCAACAACAGAGGAUUGAGCAUCA
B11: chr9:19378429:19378430:-_ENSG00000137154_ENST00000315377|hu_mus|motif|central (ssRNA)
RNA: GGGAGUUCUACAGUCCGACGAUCACAACAUACUGGCGGACAUCAUCUUCUUUGGAGAGAUUAAAAAGCUUGCGGAUUCGGCGGGCCCUUUUAGGUCCCAACCGACGAGGCACAGUAGUGUCUGUCAGUCCAGGAAUAUCCUUCCAACAGAGGAUUGAGCAUCA
B12: 97413096_97413216_384_3pUTR_ENSMUSG00000038453_ENSMUST00000107596|mouse|control|control (ssRNA)
RNA: GGGAGUUCUACAGUCCGACGAUCUUCUGGAGCCCGCUGAGGGCCUCCAGGCUCUGGGCAGCGAUCACCGUGUGCCGGCGCUCCGAGGUGUGCACCAGCCCCACGUUGGAGAAGCGCCGGCCCCCGCUGCCACCUCCGCCCCCACAACAGAGGAUUGAGCAUCA
B13: 29804774_29806149_1691_CDS_ENSMUSG00000019715_ENSMUST00000019859|mouse|control|control (ssRNA)
RNA: GGGAGUUCUACAGUCCGACGAUCGGAAUCCGUCACUUGGUAGCCAAGCAUCCUUUGAUAGUCCUCCAAGGCCAUCCCUUCCUUGAAAGCUGGGUAGAAAGGAACAGAGUAUGGACACUUCUUGUGGAGAUGAGCAAGAAUGAGCAACAGAGGAUUGAGCAUCA
B14: chr2:117093540:117093541:+_ENSMUSG00000027349_ENSMUST00000028825|mus_mus|motif|central (ssRNA)
RNA: GGGAGUUCUACAGUCCGACGAUCCAAUGUGACUGUUGUCUUGGGCGACAGAGCAUAACGCUUGGGCUGGUAAAUUCUUGCGGUGUUAUCUGUUUUUGCCUUUGCUCUAUCGGACCAUCCAAAGGACUGCACUGUCACAUCCAACAACAGAGGAUUGAGCAUCA
B15: chr10:121026873:121026874:-_ENSMUSG00000034667_ENSMUST00000039810|mus_hu|motif|central (ssRNA)
RNA: GGGAGUUCUACAGUCCGACGAUCUCUUUUGUAGAAUACAUAUUGGCGUUGAAACAGUUUAAAGAAAUGAAAUGGCGGUCGGCAAAAAGUUAGUUUUGAUUGCUGUCUUCCCCCAUACUUUGUGUCUUCACACAUAAAGAAAAUCAACAGAGGAUUGAGCAUCA
B16: chr12:25667166:25667167:+_ENSMUSG00000036333_ENSMUST00000066652|mus_mus|FALSE|FALSE (ssRNA)
RNA: GGGAGUUCUACAGUCCGACGAUCUCUUCCACAUAAUUUAUCACACUCUGUGAUAUAAGAACCGACAUUUUCACAGAAAUCUAUAGCCGACUUUAAUUCACCGUGUCACGGCCUGGCCGAAGACGGCGCCCUCAGCUCUGCAGACAACAGAGGAUUGAGCAUCA
B17: chr17:73195629:73195630:+_ENSMUSG00000039770_ENSMUST00000045174|mus_hu|FALSE|FALSE (ssRNA)
RNA: GGGAGUUCUACAGUCCGACGAUCACGGGUACCACCGAUAUGAUCAAGGAAAAUUCUGCCCAUUUUUAUGGCUGAAGUUCUAAAAACCCUGAGCGGCGGUGAGAUCCGCGGCUGCCAGCGGCUUGUCGCUCUUCAGCUGGUAUGCAACAGAGGAUUGAGCAUCA
B18: chr18:35731670:35731671:+_ENSMUSG00000037236_ENSMUST00000166793|perfect_dup|FALSE|FALSE (ssRNA)
RNA: GGGAGUUCUACAGUCCGACGAUCUGACCCUGUGAGUCCCUACUGAGAGAUGACUGCUGGAAUGACUUGGACAUUGUAGAACUAGCUCUUGUCUAUUUUAUAGAUUAAAAAAAAAAAUUUUUUUAAAGACGGCCAAAAAGAAAGCAACAGAGGAUUGAGCAUCA
B19: chr1:16453270:16453271:-_ENSMUSG00000025920_ENSMUST00000027052|mus_mus|FALSE|FALSE (ssRNA)
RNA: GGGAGUUCUACAGUCCGACGAUCUUAUACUGCUCCCUUCGGAUUCCCAUGUCUGCUCGCCAAGACUCAGCUGCACCGAAAACAUCUGAUUUAUCUGAAGCAUGUUAAGACAAUAUUGAUCAAACUUCCGUAUCCCUCACAGCUCAACAGAGGAUUGAGCAUCA
B20: chr5:145543945:145543946:-_ENSG00000133706_ENST00000545646|hu_hu|hu_hu_hu_mus_True|8_38 (ssRNA)
RNA: GGGAGUUCUACAGUCCGACGAUCCUGAACGGCCAGUGGUGGGAAAUAAUCAAGCCAGUGCUCUGCUUCAGAAAACUUCACUAUGUCGUCAUCAGAGAGGCCAAGGGAUUUCAUAAUGUCCCACUGGUAUUUAGAAGAUCCUGCCAACAGAGGAUUGAGCAUCA
B21: 114201994_114203277_838_CDS_ENSG00000023041_ENST00000369405|human|control|control (ssRNA)
RNA: GGGAGUUCUACAGUCCGACGAUCAGCAUGGAUACAACCCAGUGGUGCUAAAAGGAGAAACAGUGUGAACGAAGCAUGAUUUUGGUAACCACAACAGUUGUUGAUCCAAGGACAGUGAUGGUCCAUCUUCAUCACACAUCUGUUCAACAGAGGAUUGAGCAUCA
B22: 31608904_31609115_2755_CDS_ENSG00000204463_ENST00000375976|human|control|control (ssRNA)
RNA: GGGAGUUCUACAGUCCGACGAUCAAGCUCCAUCUGCUGUCCCCCCAAGCAGUGCAGGUUUAGGGCCAGGCAUUCAAACAGGCCUUGGUUACACAACUCCAGCAACCGGGCCCCAAAUCCACUAUCUGUGCAAUGCAGCACAUGCAACAGAGGAUUGAGCAUCA

The binders below were run against T1, UNK ZnF1-3 (assay: nsRBNS (natural sequence RNA bind-n-seq); RBNS binding buffer (assumed for nsRBNS): 25 mM Tris pH 7.5, 150 mM KCl, 3 mM MgCl2, 0.01% Triton X-100, 500 ug/ml BSA, 20 U/ml SUPERase-In, 4 C; UNK is unkempt and MSI1 is Musashi-1; names of the RNAs are library labels; protein concentration not given here; high values mean tight binding).

Binder | binding signal [enrichment R]
B1 | 0.571
B2 | 0.908
B3 | 0.871
B4 | 0.836
B5 | 1.34
B6 | 0.655
B7 | 1.19
B8 | 0.893
B9 | 0.489
B10 | 0.741
B11 | 0.948
B12 | 0.375
B13 | 1.27
B14 | 0.39
B15 | 1.05
B16 | 0.907
B17 | 0.854
B18 | 2.84
B19 | 1.14
B20 | 1.1
B21 | 1.54
B22 | 0.715
